# Measured values as given in the supplement of paper PMC11417369.
# Some of the results follow.
# System: PfHDP1 homeodomain (GST-tagged)
# Assay: gcPBM binding intensity (ln(normalized median fluorescence intensity)); higher = stronger DNA binding
# In short: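 The binding buffer was 1× PBS containing 1% milk, 0.2 mg/ml BSA, 0.5% salmon testes DNA and 0.03% Triton X-100. In it, GST-tagged P. falciparum DNA-binding domains expressed in E. coli were applied for 1 h to an Agilent 4 × 180k array of primer-extended double-stranded 36-bp intergenic genomic probes plus negative controls. Binding intensity, read with Alexa488 anti-GST antibody and a 488 nm scan, is the highest Masliner-normalised natural-log median intensity across replicate spots of either probe orientation.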
row,Sequence,gcPBM binding intensity (ln)
1,ATTTTATAAAGGAAGTGTACTAATAAATTCAAATTA [XGTACX_site3922],6.18
2,AAAAAAGAATTGTGCACACACAAAAAATGTTCATAA [CACACA_site1103],10.3
3,TCGATGTTGGTAGGATGTACGGTACCGGTAGTATTT [XGTACX_site4214],6.33
4,AAAAAAAAAAAAAAATGTACAAATATATACATATAT [XGTACX_site935],6.4
5,AAGAAAAAATATACTTCACACATTTAATATATAATT [CACACA_site4919],6.06
6,TCAATTAGACGAAAATGTACATATGTATATATTTTT [XGTACX_site5027],6.25
7,GATATATTTTATATATGTACATACAAGGGTAAATAT [XGTACX_site1202],6.8
8,AAAATAAACTATAGTACACACTTATTATTATGAAAT [CACACA_site5488],6.57
9,AAAATATGTAGCTACACACACATAAACAAAATAACA [CACACA_site1007],6.79
10,AACATTTTAAATTATACACACATTTTGAATATATAT [CACACA_site3470],6.77
11,TATACACCCAGACACACACACACACCCAAAAAAAAA [CACACA_site497],6.7
12,TGTTGTTGTAATTATTGTACGTTATGCGATTATTAT [XGTACX_site7005],6.8
13,ATATAATTATAAAATAAACACACATATATATTTATA [CACACA_site8039],6.41
14,TAATGTTACACAAACTTTTCATTCTTTTTAATAAAT [TGCATGCA_negctrl_site331],6.43
15,ATATATATATATATATGTACATAGAGAAGTATCTTT [XGTACX_site4737],9.44
16,TTATTTATTTATAATTGTACATTGCAAATGAATTTA [XGTACX_site4083],6.41
17,ATGAACATATTTTTTTGTACTTATGAAAATATGTTA [XGTACX_site5996],6.25
18,TAGTAGTTATCATTAACATGCAATAATATTATTTAA [TGCATGCA_site178],6.46
19,AAAAAAAAAAAAAAAAGTACTCTATAAGTAACATTT [XGTACX_site6973],6.51

row,Sequence,gcPBM binding intensity (ln)
1,ATTTTTTTGTTATTGTTGAAAAGATGGTTCTTTTTT [CACACA_negctrl_site1346],6.59
2,AATTTCTTATTTTGTACACACAATAAATATTCACAT [CACACA_site1612],6.83
3,GAAAACAAAATGGTAACACACAAATGTAAATAGTAT [CACACA_site2113],6.72
4,AAAATAAATAAATACACACACACGAATATTTATATA [CACACA_site6892],6.77
5,ATTATTTCAATTTTTTTTGTTTTTAAAAAAAAAAAT [CACACA_negctrl_site1387],6.05
6,ATTATAAAAATATCGTGTACATATTTTTTAAAATAA [XGTACX_site5072],6.11
7,AAAAAAAAAAAAAAAAGTACACATCATTTTATGAAA [XGTACX_site1402],6.41
8,TAGTATAATATGAACACACACACACCCACAAAAAAA [CACACA_site2009],7.09
9,CAAAAAATATATTTTTGTACTTATGTTTTTATTTTG [XGTACX_site5230],6.54
10,TTATAATATAAAAAATGTACATTAAAAAAAAAGATT [XGTACX_site8950],7.02
11,AAGTATCAAAAATAAAGTACATATTTTGTAGGCAGG [XGTACX_site1463],6.76
12,TTTTTATTTTTTAGTAGTACACACTTTTTGAACCTT [XGTACX_site1091],6.75
13,TTTTTTTTTTTCCTTACACACATATTTCATTTTATA [CACACA_site747],6.63
14,TTTTATATATATTATACACACAAGGAAAAAAAAAAA [CACACA_site3677],6.75
15,AAAAAAAAAAAAAGTGCACACTTTTAATATAAATAT [CACACA_site3314],8.41
16,TATAAAAGGAAACACACACACATATATATATATATA [CACACA_site939],9.41
17,TGGATATATGTAAAAATTGCAAGAAAGATAAAAGGA [CACACA_negctrl_site64],8.18
18,TCTATGAATTAATATGCATGTAACGTATTTATACTT [TGCATGCA_site669],6.47
19,ATTATGATATATATATGTACATATATATAATATAAT [XGTACX_site259],6.55

row,Sequence,gcPBM binding intensity (ln)
1,TTGAAGTATAATAAAGTGCAAAATTATAATGATCTT [GTGCAC_site9639],9.12
2,TGTTGGTATGTGAATGCATGCATATAAGTCTATCTG [TGCATGCA_site780],6.91
3,GTTAATTTTTGTATAGTGCAAAAATATAATAGTATG,9.54
4,AAATGGGAAATTTCATGTACTCATTTACCCTTATTA [XGTACX_site4740],5.89
5,ATCTGACAAAAGTGTACACATATATATATATATATA [CACACA_site4814],9.45
6,CACATAATGAAAAATACACACATGTATATTTATAAA [CACACA_site2736],6.45
7,AAAAGATAAAATTATGCACACATACGAATAATTTTA [CACACA_site8497],10.1
8,TATTTCACACAGTATATATATATATATATATATATA [TGCATGCA_negctrl_site118],9.44
9,AAGGGAAAAAAAAAAGCACACATACGTAAATATATA [CACACA_site7960],6.56
10,TACTAAGAAAAGAACTGTACATAGAATATACCCAAG [XGTACX_site4757],6.13
11,AATATCAAAAAAAAAAAAAAAAAAAAAAAAAAAAAA [CACACA_negctrl_site288],6.12
12,AATATATTAAATATTACACACATACATTTAGTGGAA [CACACA_site8609],6.71
13,AGATATATATATAGGTGTACTGGAATGAAATTGTTT [XGTACX_site8200],6.67
14,ATGATAATTATTAAGGGTACATAAAAATATATCTAT [XGTACX_site8969],6.36
15,ATTATTTAACATGTGGACACAAAAATTTAAGGGTTC [CACACA_negctrl_site1269],6.63
16,TATAATTATTTTTTCACACATATGTATTTATATATA [CACACA_site4205],7.05
17,TACTAAATGATCATATGTACACATGTTTACTTTTTA [XGTACX_site1253],7.67
18,AATATATATATATATATATATATTTCAATATATAAA [XGTACX_negctrl_site187],7.08
